# Measurements reported in PubChem BioAssay (Tox21).
# “And” between values parts separate entries of the source, which are not always exact repeats. Equal values may be shown once. The inconclusive results got no clear call from the source; some entries with a clear call stand among them for comparison. Potencies of inconclusive entries are doubtful fits and often do not repeat. More than one record can exist for a structure, and the calls need not agree. The source made the active and inactive calls. The call rests on the fitted dose curve; in most records, active means well fitted cell-killing curve with a large enough effect in the repeat runs; inconclusive means weak or mixed curves, or effect the other way; inactive means no such curve, though single readings can be large or run the other way.
# Assay: qHTS assay for identifying genotoxic compounds that show differential cytotoxicity against isogenic chicken DT40 cell lines with known DNA damage response pathways - wild type cell line (AID 743012); further: nearly all actives have a fitted effect of over 60% in size
# Settings: DT40 wild type chicken cells viability, CellTiter-Glo, 40 h; activity change, negative = cytotoxicity: at 68.4 µM (top of the series) unless noted
# How it was run: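 Endpoint: CellTiter-Glo luminescence, 30 min RT. Cells: wild type DT40, 300/well. Exposure: compounds in DMSO, 40 h, 37 C/5% CO2, after ~0.5 h pre-incubation.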
# On the % scale 0 is the no-effect control and ±100 the full control effect; potency means the concentration at half of the fitted maximal effect; tags describe the fitted curve by direction and shape.
SMILES,Potency,"activity change, negative = cytotoxicity"
CCOC(=O)[C@@](C)(N)Cc1ccc(O)c(O)c1,"inconclusive: 14.3 µM [cytotoxic, single point]",
CCCCCCCCCCCCCC[n+]1ccccc1,active: 0.122 µM,
OCCN1CCN(CCCN2c3ccccc3Sc3ccc(Cl)cc32)CC1,active: 3.59 µM,
CCOC(=O)[C@H](CCc1ccccc1)N[C@H]1CCc2ccccc2N(CC(=O)O)C1=O,active: 11.9 µM,
Nc1nc2ccc([N+](=O)[O-])cc2s1,"inconclusive: 19.3 µM [rising, full curve, poor fit]",
COc1cccc(OC)c1C(=O)O,"inconclusive: 27.3 µM [rising, single point]",
CC1(CN2CCC(n3c(=O)[nH]c4ccccc43)CC2)OCc2ccccc2-n2cccc21 (stereo not given),active: 21.1 µM,
Cc1ccc(C(=O)c2cc(O)c(O)c([N+](=O)[O-])c2)cc1,"inconclusive: 33.5 µM [cytotoxic, single point] and inconclusive: 68.6 µM [cytotoxic, single point]",
C1=CC2C3C=CC(C3)C2C1 (stereo not given),"inconclusive: 13.4 µM [rising, partial curve, poor fit]",
CC(C)CC(C)O (stereo not given),"inconclusive: 68.6 µM [cytotoxic, single point]",
Cc1ccc(C(C)C)c(O)c1,inactive and active: 48.6 µM,
c1ccc2sc(SN3CCOCC3)nc2c1,"inconclusive: 37.6 µM [cytotoxic, partial curve, poor fit]",
Oc1cc2c(cc1O)[C@H]1c3ccc(O)c(O)c3OC[C@@]1(O)C2,active: 43.8 µM,
Nc1c2c(nc3ccccc13)CCCC2,"inconclusive: 2.37 µM [cytotoxic, full curve]",
CC[N+](C)(CC)CCOC(=O)C1c2ccccc2Oc2ccccc21,,inactive: 18%
CC[N+](CC)(CCNC(=O)C(=O)NCC[N+](CC)(CC)Cc1ccccc1Cl)Cc1ccccc1Cl,,inactive: 14.5%
OC[C@H]1O[C@@H]2O[C@H]3[C@H](O)[C@@H](O)[C@@H](O[C@H]4[C@H](O)[C@@H](O)[C@@H](O[C@H]5[C@H](O)[C@@H](O)[C@@H](O[C@H]6[C@H](O)[C@@H](O)[C@@H](O[C@H]7[C@H](O)[C@@H](O)[C@@H](O[C@H]1[C@H](O)[C@H]2O)O[C@@H]7CO)O[C@@H]6CO)O[C@@H]5CO)O[C@@H]4CO)O[C@@H]3CO,inconclusive: 32.4 µM [cytotoxic],
CC(CC=O)CCCC(C)(C)O (stereo not given),inconclusive: 68.2 µM [cytotoxic],
O=[N+]([O-])c1ccccc1Nc1ccccc1,,inactive: -1.72%
CCOC(=O)C1OC1c1ccccc1 (stereo not given),"inconclusive: 62.4 µM [rising, partial curve]",

SMILES,Potency,"activity change, negative = cytotoxicity"
CC1CN(c2ccccc2)NC1=O (stereo not given),,inactive: -16.3%
CCCCC(CC)C(=O)OCCOCCOCCOC(=O)C(CC)CCCC (stereo not given),"inconclusive: 2.76 µM [rising, full curve]",
O=Cc1ccc(F)cc1,"inconclusive: 30.6 µM [cytotoxic, partial curve]",
CCCCN(CCCC)c1ccc(C(=O)c2ccccc2C(=O)O)c(O)c1,"inconclusive: 77.7 µM [cytotoxic, single point]",
NCCO,"inconclusive: 68.6 µM [cytotoxic, single point]",
OC[C@@H](O)[C@@H](O)[C@H](O)[C@H](O)CO,"inconclusive: 6.16 µM [cytotoxic, partial curve, poor fit]",
CN(C/C=C/C#CC(C)(C)C)Cc1cccc2ccccc12,"inconclusive: 23.7 µM [cytotoxic, partial curve, poor fit]",
CC1=CCC(C(C)C)=CC1,"inconclusive: 21.7 µM [rising, partial curve, poor fit]",
O=C(O)c1cccc([N+](=O)[O-])c1,"inconclusive: 0.304 µM [rising, full curve, poor fit]",
O=C(/C=C/c1ccc(O)c(O)c1)O[C@@H]1C[C@@](OC(=O)/C=C/c2ccc(O)c(O)c2)(C(=O)O)C[C@@H](O)[C@@H]1O,"inconclusive: 33.5 µM [rising, partial curve, poor fit]",
CCCCCCC/C=C/C=O,"inconclusive: 68.6 µM [cytotoxic, single point]",
Cn1cnc([N+](=O)[O-])c1Sc1ncnc2nc[nH]c12,"inconclusive: 3.42 µM [rising, full curve]",
CC[C@H]1CN2CCc3cc(OC)c(OC)cc3[C@@H]2C[C@@H]1C[C@H]1NCCc2cc(OC)c(OC)cc21,active: 18.8 nM and active: 24.4 nM,
C1C[C@@H]2[C@H]3CC[C@H](C3)[C@@H]2C1,"inconclusive: 30.7 µM [rising, full curve, poor fit]",
Nc1ccc(O)c(N)c1,"inconclusive: 27.1 µM [cytotoxic, partial curve, poor fit]",
Cc1c(OCC(F)(F)F)ccnc1CS(=O)c1nc2ccccc2[nH]1 (stereo not given),"inconclusive: 68.6 µM [cytotoxic, single point]",
CCCCCCOC(=O)c1ccccc1O,"inconclusive: 68.6 µM [cytotoxic, single point]",
CN1CCN(CCCN2c3ccccc3Sc3ccc(S(=O)(=O)N(C)C)cc32)CC1,inconclusive: 14.3 µM [cytotoxic],
CCOc1ccc2[nH]cc(C(=O)NCc3ccccc3)c(=O)c2n1,active: 43.3 µM,
O=C(O)C1CCC(C(=O)O)CC1 (stereo not given),inconclusive: 68.4 µM [cytotoxic],
